Reference: PubChem BioAssay AID1508624 (National Center for Advancing Translational Sciences (NCATS), 2021)
Among all 48,000 compounds or so, about 120 (0.25%) were called active. Another 4% or so got no clear call; they are omitted. The call rests on the fitted dose curve; in most records, active means well fitted activation curve with a large enough effect; inconclusive means small, poorly fitted or top-dose-only effect, or another doubt; inactive means no such curve, though single readings can be large or run the other way. The list shows a part of the results.

Assay: Primary qHTS for Identification of Small Molecule Activators of Huntingtin-Antisense Promoter Activity; further: nearly all actives have a fitted effect of over 55% in size
Conditions: HEK293 HTT-AS promoter firefly luciferase reporter, 24 h; series mostly up to 57.5 µM; activity change, positive = activation: at the top concentration
Outline: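 Firefly luciferase signal from promoter-reporter HEK293 cells was scaled between vehicle (0%) and zero RLU (-100%). Compounds were tested at final concentrations of up to 57.5 uM over 24 h at 37 degrees C. PTC124 at 50 uM final served as control inhibitor.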

Activity change, positive = activation, inactive:
CCCOc1ccc(-c2cc(C(F)(F)F)c(C#N)c(SCCC(=O)O)n2)cc1 0%
CCCN(CCC)C(=O)Cn1c(=O)n(CCCCCC(=O)NCc2ccccc2Cl)c(=O)c2sccc21 -8.25%
CC(C)CCNC(=O)C(Cc1ccccc1)NS(=O)(=O)c1ccc2c(c1)c(=O)n(C)c(=O)n2C (stereo unspecified) -10.7%
CS(=O)(=O)N1CCc2cc(C(=O)Nc3ccc(C(F)(F)F)cc3)ccc21 -42.9%
Cc1cc(C)n(-c2nc3cc(Cl)ccc3nc2N2CCN(c3ccccc3F)CC2)n1 -14.3%
Cc1ccc(CNC(=O)CSc2nc3n[nH]c(C)c3c(=N)n2-c2ccccc2Cl)cc1 -10.4%
O=C(Nc1ccccc1C(=O)OCc1cc(=O)n2nc(C3CC3)sc2n1)c1cccc(F)c1 20.1%
CC(C)c1noc(-c2ccccc2OCC(=O)Nc2cccc([N+](=O)[O-])c2)n1 -6.42%
CC(C)Sc1ncc(Cl)c(C(=O)Nc2ccc(S(=O)(=O)N3CCCCC3)cc2)n1 -6.95%
CCN(CC)S(=O)(=O)c1ccc2c(c1)c(=O)c(C(=O)N1CCN(c3cc(Cl)ccc3C)CC1)cn2C 2.02%
Cc1ccc(NC(=O)C2CCN(S(=O)(=O)c3cccc4nonc34)CC2)cc1C -18%
Cc1ccc(-c2cc3nc(-c4ccccc4)cc(C(F)(F)F)n3n2)cc1 -6.03%
COc1cc(C2CC(=O)Oc3c2c(=O)[nH]c2ccccc32)cc(OC)c1OC (stereo unspecified) -13.3%
CCOc1ccc(Nc2c(S(=O)(=O)c3ccccc3)cnc3ccc(F)cc23)cc1 -32.7%
O=C(Oc1ccccc1F)c1nc(SCc2ccc(F)cc2)ncc1Cl 4.66%
COc1ccc(-c2nc3scc(CCNS(=O)(=O)c4ccc5c(c4)OCCO5)n3n2)cc1 -15.8%
CC(=O)N1CCc2cc(Br)cc(S(=O)(=O)CCC(=O)N3CCN(c4ccccc4Cl)CC3)c21 -17.4%
Cc1ccc(CN(C(=O)COc2cc(C)c(Cl)c(C)c2)c2ccccn2)o1 -25.7%
CCOc1ccc(-c2c(C)nn3c(C)c(C(=O)Nc4cc(C)cc(C)c4)cnc23)cc1OCC -12.3%
CC1=C(C(=O)Nc2ccccc2C)C(c2ccccn2)n2ncnc2N1 (stereo unspecified) -9.41%
CC(=O)N1CCc2cc(S(=O)(=O)NC(CC(C)C)C(=O)Nc3cc(C)cc(C)c3)ccc21 (stereo unspecified) -16.6%
CCC(=O)C1=C(c2ccc(C)cc2)N(C(=O)CC)n2c(nnc2C2CCCCC2)S1 -20.7%
Cc1c(Cl)cccc1NC(=O)CCOc1ccccc1 0.0583%
CCOc1ccc(Cn2c(=O)sc3ccccc32)cc1 -10.4%
Cc1cccn2c(=O)c3cc(C#N)c(=O)n(-c4nnc(SCc5ccc(Cl)cc5)s4)c3nc12 -13.5%
CC1=C(C(=O)Nc2ccc(Cl)cc2)C(c2ccccc2)n2ncc(C(=O)Nc3ccccc3)c2N1 (stereo unspecified) -55%
Cc1cc(C)c2c(c1)c(C)cc1nnc(SCc3ccccc3C#N)n12 -16.5%
Cc1ccc(NC(=O)CN2C(=O)COc3ccc(S(=O)(=O)NC4CCCC4)cc32)cc1N(C)C -22.1%
Cc1ccc(C)c(Cn2c(=O)c3c(nc4n3CCN4c3ccccc3)n(C)c2=O)c1 -14.6%
CCSc1ncc(Cl)c(C(=O)Nc2sc3c(c2C(=O)NCCCOC)CCCC3)n1 -7.44%
CC(=O)N1CCc2c(sc3c2c(=O)n(CCc2ccccc2)c(=O)n3Cc2ccccc2C)C1 -45.9%
COc1ccc(NC(=O)CSc2nc(-c3cccc(C)c3)[nH]c2-c2ccccc2)cc1OC -20.6%
Cc1ccc(C)c(-c2ccc(=O)n(Cc3c(F)cccc3Cl)n2)c1 -19.3%
COc1ccc(N2C(=O)CSC23C(=O)N(CC(=O)NCCc2ccccc2)c2ccccc23)cc1 (stereo unspecified) -1.7%
O=C(CSc1nc(=O)[nH]c2c1CCCC2)NCc1ccccc1 -1.16%
COc1ccccc1C(=O)Nc1ccc(C(=O)OCc2cc(=O)n3nc(C4CC4)sc3n2)cc1 0%
Cc1nn2c(C)c(C(=O)NC(C)(C)C)cnc2c1-c1ccc(F)cc1 -14.8%
Cc1ccc(N2CC(NC(=O)c3cc4ccccc4o3)CC2=O)cc1 (stereo unspecified) -5.44%
COc1ccc(NC(=O)Cn2c(=O)n(Cc3ccccc3)c(=O)c3sc4ccccc4c32)cc1 -9.7%
CCOc1ccc(C(=O)Nc2ccc3oc(-c4ccc5ccccc5c4)nc3c2)cc1 13.4%
CCCCNC(=O)c1cc2n(n1)CCCN(Cc1ccc(C)cc1)C2=O 11%
CCc1ccc(Cn2c(CNS(=O)(=O)c3ccc(C)c(C)c3)nc3cccnc32)cc1 -13.9%
Cc1ccc(S(=O)(=O)c2c(O)cc(C)c(NS(=O)(=O)c3ccc(Cl)cc3)c2C)cc1 -36.1%
COc1ccccc1N1CCN(S(=O)(=O)c2c(C)nc3sccn3c2=O)CC1 -6.81%
Cc1cc(C)c2sc(N3CCN(C(=O)c4ccc(N(C)C)cc4)CC3)nc2c1 -21.4%
CCCCCCCCCCCCCCCCCC(=O)OCC(O)CO (stereo unspecified) -2.57%
CC(C)c1nn2c(=O)cc(COC(=O)c3ccco3)nc2s1 2.1%
CCC(Oc1ccc(F)cc1)C(=O)Nc1c(C(=O)c2ccc(C)cc2)oc2ccccc12 (stereo unspecified) -1.27%
CCn1cc(C(=O)N2CCN(c3ccccc3)CC2)c(=O)c2cc(S(=O)(=O)N3CCOCC3)ccc21 -13%
CCn1c2c(c(=O)n3ncc(C(=O)N4CCN(c5ccc(Cl)cc5)CC4)c13)CN(Cc1ccc(OC)cc1)CC2 -63.6%
COc1ccc(-c2nc3scc(CCNS(=O)(=O)c4ccc(F)cc4C)n3n2)cc1 -25.1%
COC(=O)c1cc2oc3ccccc3c2n1Cc1ccc(Cl)cc1 11.4%
CCN(CC)CCNC(=O)c1cc2c(=O)n(C)c3cc(Cl)ccc3c2s1 -16.8%
CCOC(=O)c1[nH]c(C)c(CCC(=O)NCc2ccc(CC)cc2)c1C -27.2%
COc1cccc(CN2c3ccccc3-c3nc(SCC(=O)Nc4ccccc4Cl)ncc3S2(=O)=O)c1 -37.6%
Cc1ccc(-c2ccc(=O)n(CCC(=O)NCCc3ccccc3)n2)cc1 -1.29%
COc1ccc(Nc2cc(C(=O)NCCCN3CCN(c4ccccc4F)CC3)c3ccccc3n2)c(OC)c1 -25.8%
CC(C)(F)C[C@H](N[C@@H](c1ccc(-c2ccc(S(C)(=O)=O)cc2)cc1)C(F)(F)F)C(=O)NC1(C#N)CC1 -10.1%
O=C1CSC2(C(=O)N(Cc3cccc(F)c3)c3ccccc32)N1c1cccc(C(F)(F)F)c1 (stereo unspecified) -43%
CC(C)COc1ccc(C(=O)N2CCN(CCc3ccncc3)CC2)cc1 -35.3%
COc1ccc(NC(=O)c2ccc3nc(C(C)C)oc3c2)cc1OC 7.63%
COc1ccc(N(C)C(=O)c2cn(C)c(=O)c3cc(OC)c(OC)cc23)cc1 -13.7%
Cc1ccc(Cn2c(CO)cnc2SCC(=O)Nc2ccc(C)c(Cl)c2)cc1 -21.6%
CCCCN(C)CCNC(=O)c1cc2c(=O)n(C)c3ccccc3c2n1C -4.48%
COc1ccc(CNC(=O)CCc2c(C)c3cc4c(C)coc4c(C)c3oc2=O)cc1OC -17.4%
Cc1ccc(S(=O)(=O)CC(=O)N2CCN(c3nc4c(F)cccc4s3)CC2)cc1 -11%
CN1C(=O)c2ccccc2Sc2ccc(NC(=O)c3ccc(C(F)(F)F)cc3)cc21 -29.1%
CCCc1nn2c(=O)cc(COC(=O)c3ccc(NC(=O)COc4ccccc4)cc3)nc2s1 -1.74%
N#Cc1ccccc1NS(=O)(=O)c1ccc(N2CCCCS2(=O)=O)cc1 10.7%
CCN(CC)C(=O)c1sc2c(c1C)c(=O)n(CCc1ccccc1)c(=O)n2Cc1cc(C)ccc1C -7.74%
O=C(CSc1nnc(-c2cccs2)o1)Oc1ccccc1Cl -2.81%
CC(C)(C)C(=O)NCC(c1ccc2c(c1)OCO2)N1CCOCC1 (stereo unspecified) -1.61%
COc1cccc(N2CCN(C(=O)c3cc4c(s3)-c3ccccc3OC4)CC2)c1 -28.2%
O=C(NCCc1ccc(Cl)cc1)c1ccc(CS(=O)(=O)c2ccc(Cl)cc2)o1 -6.75%
Cc1cccc(C)c1NC(=O)C(NS(=O)(=O)c1cccs1)c1ccccc1 (stereo unspecified) -17.7%
O=C(Cn1ccn(-c2ccc(F)cc2)c(=O)c1=O)Nc1ccc(F)cc1 -3.01%
O=C(Cn1ncc2c3ccccc3n(Cc3cccc(Cl)c3)c2c1=O)Nc1ccc(F)cc1F -14.9%
COc1cc(CNC(=O)c2ccc3c(c2)c(C)c(C)n3Cc2cccc(C)c2)cc(OC)c1OC -19.2%
COc1ccc(NC(=O)Cn2cc(S(=O)(=O)c3ccccc3)c(=O)c3cc4c(cc32)OCO4)cc1 -7.63%
CCN1CCc2c(sc(-n3cccc3)c2C(C)NC(=O)Nc2ccc(Br)cc2)C1 (stereo unspecified) 4.72%
CCCC(=O)OCc1cnc(C)c2oc(=O)c(C(=O)Nc3cccc(C(F)(F)F)c3)cc12 -13.3%
CON=C(C(=O)N[C@@H]1C(=O)N2C(C(=O)OCOC(=O)C(C)(C)C)=C(C=Cc3scnc3C)CS[C@H]12)c1csc(N)n1 -3.28%
COc1ccc(N(Cc2cccs2)C(=O)c2ccc(OC)c(Cl)c2)cc1 -40.1%
Cc1cccc(N2CCN(C(=O)C3CCN(S(=O)(=O)c4c(C)noc4C)CC3)CC2C)c1 (stereo unspecified) -33.2%
Cc1c(C(=O)Nc2ccccc2)sc2nc(-c3cc4cc(Cl)ccc4oc3=O)[nH]c(=O)c12 -12.2%
CCCS(=O)(=O)c1c(S(=O)(=O)CCC)c2cc(C(C)(C)C)ccn2c1C(=O)c1ccccc1 -83.6%
COc1cccc(N2CCN(C(=O)C3CCN(S(=O)(=O)c4c(C)noc4/C=C/c4ccccc4F)CC3)CC2)c1 -5.78%
CCC(=O)Nc1ccccc1-c1nc2ccccc2n(CC(=O)Nc2ccccc2OC)c1=O -21.6%
Cc1ccc(CNS(=O)(=O)c2ccc3c(c2)CC(C)N3C(=O)C2CCC2)cc1 (stereo unspecified) -1.91% [at 11.5 µM, percent change from vehicle, -100% = no light]
COc1ccc(OC)c(C(=O)CN2C(=O)N(c3ccc(C)cc3)S(=O)(=O)c3ccccc32)c1 -12.3%
O=C(Cn1c(-c2cccs2)cc2ccccc21)N1CCN(c2ccc(F)cc2)CC1 -19%
